# The whole screen tested about 39,000 compounds, of which about 220 (0.56%) showed activity. The list shows a part of the results.
# Test system: Escherichia coli K-12 BW25113
# Test: relative growth (OD600 normalised to plate interquartile mean) (fraction); higher = less growth inhibition, active = 0.2 or less
# Settings: 50 µM; LB; incubation time: overnight (16-24 h)
# 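Note: static incubation at 37 °C against the wild-type strain, values averaged over two biological replicates.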
row,SMILES,relative growth
1,COc1ccc(S(=O)(=O)Nc2ccc3c(c2)C(=O)N([C@@H](C)CO)C[C@@H](C)[C@@H](CN(C)S(=O)(=O)c2ccc(C)cc2)O3)cc1,inactive: 1.02
2,C[C@@H]1CCCCO[C@H](CN(C)C(=O)CCC(F)(F)F)[C@@H](C)CN([C@@H](C)CO)C(=O)c2cc(NC(=O)C3CCCCC3)ccc2O1,inactive: 1
3,O=C(c1ccccc1Cl)c1cccnc1-c1nnn(Cc2cc(C(F)(F)F)cc(C(F)(F)F)c2)c1-c1ccncc1,inactive: 1.01
4,C[C@@H]1CN([C@H](C)CO)C(=O)CCCn2cc(nn2)CO[C@H]1CN(C)C(=O)Nc1ccc2c(c1)OCO2,inactive: 0.97
5,C[C@@H]1CCCCO[C@@H](CN(C)C(=O)Nc2ccccc2)[C@@H](C)CN([C@@H](C)CO)C(=O)c2cc(NC(=O)Cc3ccccc3)ccc2O1,inactive: 0.991
6,O=C(C[C@@H]1CC[C@H]2[C@@H](COC[C@@H](O)CN2S(=O)(=O)c2ccc(Cl)cc2)O1)NCCN1CCCCC1,inactive: 1.03
7,COc1ccc2c3c([nH]c2c1)[C@H](CO)N(C[C@]13CCN(CC1)C(=O)Nc1c(noc1C)C)C(=O)Nc1ccc(cc1)F,inactive: 0.993
8,CC(C)CC#Cc1ccc2c(c1)O[C@H](CN(C)C(=O)Cc1ccncc1)[C@H](C)CN([C@@H](C)CO)S2(=O)=O,inactive: 1.02
9,CC(C)(C)c1cccc(N)c1,inactive: 1.01
10,CCCN(C)C[C@@H]1Oc2cc(C#Cc3ccccc3OC)ccc2S(=O)(=O)N([C@H](C)CO)C[C@@H]1C,inactive: 0.999
11,C[C@@H]1CN([C@@H](C)CO)C(=O)CCCn2nncc2CO[C@H]1CN(C)S(=O)(=O)c1ccc2ccccc2c1,inactive: 1.03
12,C[C@H]1CN([C@@H](C)CO)C(=O)Cc2cc(N(C)C)ccc2O[C@@H]1CN(C)C(=O)Nc1ccc2c(c1)OCO2,inactive: 1
13,COc1ccc(S(=O)(=O)N(C)C[C@@H]2Oc3ccc(NS(=O)(=O)c4cccs4)cc3CC(=O)N([C@H](C)CO)C[C@H]2C)cc1,inactive: 1
14,C[C@@H]1CN([C@@H](C)CO)C(=O)c2cc(NS(C)(=O)=O)ccc2O[C@H]1CN(C)C(=O)Nc1ccccc1,inactive: 0.97
15,N[C@@H](CSCc1cccc(Br)c1)C(=O)O,inactive: 1.02
16,C[C@H]1CN([C@@H](C)CO)C(=O)c2cccc(NC(=O)Nc3ccccc3)c2O[C@H]1CN(C)Cc1ccc(-c2ccccc2)cc1,inactive: 1.01
17,COc1ccc(NC(=O)Nc2ccc3c(c2)C(=O)N([C@@H](C)CO)C[C@@H](C)[C@@H](CN(C)C(=O)NC(C)C)OCCCC[C@H](C)O3)cc1,inactive: 0.994
18,COc1ccc(CN(C)C[C@H]2Oc3ccc(NC(=O)Cn4cnnn4)cc3C(=O)N([C@H](C)CO)C[C@@H]2C)cc1,inactive: 0.899
19,C[C@@H]1CCCCO[C@@H](CN(C)C(=O)CCCN(C)C)[C@@H](C)CN([C@H](C)CO)C(=O)c2cc(NC(=O)Nc3cccc4ccccc34)ccc2O1,inactive: 1.01
20,C[C@@H]1CCCCO[C@@H](CN(C)C(=O)c2ccncc2)[C@H](C)CN([C@@H](C)CO)C(=O)c2cc(NS(=O)(=O)c3ccc(Cl)cc3)ccc2O1,inactive: 1

row,SMILES,relative growth
1,COc1ccc(NC(=O)N(C)C[C@H]2OCCCC[C@@H](C)Oc3ccc(NC(=O)Nc4ccccc4)cc3C(=O)N([C@@H](C)CO)C[C@H]2C)cc1,inactive: 1.04
2,C[C@@H]1CN([C@H](C)CO)C(=O)c2cccc(NS(=O)(=O)c3ccccc3)c2O[C@@H]1CN(C)Cc1ccncc1,inactive: 1.01
3,C[C@@H]1CN([C@H](C)CO)C(=O)c2cc(NC(=O)CCC(F)(F)F)ccc2O[C@@H](C)CCCCO[C@H]1CN(C)Cc1ccccc1,inactive: 1.01
4,C[C@H](CO)N1C[C@H](C)[C@@H](CN(C)S(=O)(=O)c2ccc(F)cc2)Oc2ncc(C#CC3(O)CCCC3)cc2C1=O,inactive: 0.999
5,C[C@@H]1CN([C@@H](C)CO)C(=O)c2cccc(NS(=O)(=O)c3ccccc3)c2O[C@H]1CN(C)S(=O)(=O)c1ccc(F)cc1,inactive: 0.99
6,C[C@@H]1CN([C@@H](C)CO)C(=O)Cc2cc(NS(=O)(=O)c3ccc(F)cc3)ccc2O[C@H]1CN(C)S(=O)(=O)c1ccccc1,inactive: 1.01
7,COc1ccc(S(=O)(=O)Nc2ccc3c(c2)C(=O)N([C@H](C)CO)C[C@H](C)[C@H](CN(C)Cc2ccc(Oc4ccccc4)cc2)O3)cc1,inactive: 0.994
8,CO[C@@H]1CN(C)C(=O)c2cc(NS(C)(=O)=O)ccc2OC[C@H](C)N(S(C)(=O)=O)C[C@@H]1C,inactive: 0.999
9,O=C(C[C@@H]1C[C@H]2c3cc(NC(=O)c4ccc5c(c4)OCO5)ccc3O[C@H]2[C@@H](CO)O1)NCCN1CCCCC1,inactive: 0.994
10,COCC(=O)N(C)C[C@H]1Oc2cc(C#C[C@H](C)O)ccc2S(=O)(=O)N([C@H](C)CO)C[C@H]1C,inactive: 0.977
11,COc1ccc(S(=O)(=O)Nc2ccc3c(c2)CC(=O)N([C@H](C)CO)C[C@@H](C)[C@H](CN(C)Cc2ccc(C(=O)O)cc2)O3)cc1,inactive: 0.984
12,C[C@@H]1CN([C@H](C)CO)C(=O)Cc2cc(NC(=O)Nc3ccc(F)cc3)ccc2O[C@@H]1CN(C)Cc1ccc(C(=O)Nc2ccccc2N)cc1,inactive: 0.95
13,COc1ccc(S(=O)(=O)N(C)C[C@H]2Oc3ccc(NC(=O)Nc4cccc5ccccc45)cc3C(=O)N([C@@H](C)CO)C[C@H]2C)cc1,inactive: 1.05
14,C[C@H](CO)N1C[C@H](C)[C@H](CN(C)C(=O)Nc2ccc(F)cc2)Oc2ccc(NC(=O)Cn3cnnn3)cc2C1=O,inactive: 1
15,C[n+]1ccn(C[C@@]2(C)[C@H](C(=O)O)N3C(=O)C[C@H]3S2(=O)=O)n1,inactive: 0.98
16,C[C@@H]1CCCCO[C@H](CN(C)C(=O)Nc2cccc3ccccc23)[C@H](C)CN([C@H](C)CO)C(=O)c2cc(NS(=O)(=O)c3ccccc3)ccc2O1,inactive: 1
17,O=C(O)[C@@H]1CC(=O)N(C2CCCC2)C1,inactive: 0.982
18,Cc1ccc(C(=O)N2CCC(n3cc(C(C)(C)N)nn3)CC2)c(C)c1,inactive: 1.02
19,COc1ccc(CNC(=O)C[C@H]2C[C@@H]3c4cc(NC(=O)NC5CCCC5)ccc4O[C@@H]3[C@@H](CO)O2)cc1,inactive: 0.973
20,C[C@@H]1CN([C@@H](C)CO)C(=O)c2cccc(NC(=O)c3nc4ccccc4s3)c2O[C@H]1CN(C)Cc1ccc(C(=O)Nc2ccccc2N)cc1,inactive: 1.03

row,SMILES,relative growth
1,COc1ccc(S(=O)(=O)N(C)C[C@@H]2OCCCC[C@@H](C)Oc3ccc(NC(=O)Nc4ccc(F)cc4)cc3C(=O)N([C@@H](C)CO)C[C@@H]2C)cc1,inactive: 1.04
2,CCCNC(=O)N1C[C@@H](O)COC[C@@H]2O[C@@H](CC(=O)NCCCN3CCOCC3)CC[C@H]21,inactive: 1.01
3,C[C@@H]1CCCCO[C@@H](CN(C)Cc2ccc3c(c2)OCO3)[C@H](C)CN([C@H](C)CO)C(=O)c2cc(NS(=O)(=O)c3ccccc3)ccc2O1,inactive: 1.05
4,C/N=C(\NC)NCCC[C@H](N)C(=O)O,inactive: 0.837
5,CN(C)Cc1nc(=O)c2ccccc2[nH]1,inactive: 1.05
6,OCCn1cncn1,inactive: 0.995
7,C[C@@H]1CN([C@H](C)CO)C(=O)c2cc(NC(=O)NC3CCCCC3)ccc2O[C@@H](C)CCCCO[C@H]1CN(C)Cc1ccncc1,inactive: 1.02
8,COc1cccc(CNC(=O)c2cc3c(c(-c4cccc(-c5ccc(C#N)cc5)c4)n2)[C@H](CCO)N([S@@](=O)C(C)(C)C)C3)c1,inactive: 1.06
9,C[C@H]1CN([C@@H](C)CO)C(=O)Cc2cc(NC(=O)CCCCCC(=O)Nc3ccccc3N)ccc2O[C@@H]1CN(C)Cc1ccc(C(F)(F)F)cc1,inactive: 0.989
10,C[C@@H]1CN([C@H](C)CO)C(=O)c2cccc(NS(=O)(=O)c3ccccc3)c2O[C@H]1CN(C)S(=O)(=O)c1ccccc1,inactive: 1.01
11,Cc1noc(C)c1NC(=O)N(C)C[C@@H]1OCCCC[C@H](C)Oc2ccc(NS(=O)(=O)c3ccccc3)cc2C(=O)N([C@H](C)CO)C[C@@H]1C,inactive: 1.02
12,COc1ccc(S(=O)(=O)Nc2ccc3c(c2)C(=O)N([C@@H](C)CO)C[C@H](C)[C@@H](CN(C)C(=O)Nc2ccccc2)OCCCC[C@H](C)O3)cc1,inactive: 0.982
13,CCCCCCCCCCCCCCCC(=O)OC[C@H](NC(=O)C(Cl)Cl)[C@H](O)c1ccc([N+](=O)[O-])cc1,inactive: 0.604
14,Cc1noc(C)c1NC(=O)Nc1ccc2c(c1)C(=O)N([C@H](C)CO)C[C@H](C)[C@H](CN(C)S(=O)(=O)c1cccs1)OCCCC[C@@H](C)O2,inactive: 1
15,C[C@@H]1CN([C@@H](C)CO)C(=O)c2cc(NS(=O)(=O)c3cccs3)ccc2O[C@@H](C)CCCCO[C@@H]1CN(C)C(=O)Nc1ccc(C(F)(F)F)cc1,inactive: 1.01
16,O=C(Nc1ccccc1)Nc1ccc(Nc2ccccc2)cc1,inactive: 1.03
17,CC(=O)c1c(O)c(C)c(O)c2c1OC1=CC(=O)C(C(C)=O)C(=O)C12C (stereo not given),inactive: 1.1
18,COc1ccc(S(=O)(=O)N(C)C[C@@H]2Oc3ccc(NC(=O)C4CC4)cc3C(=O)N([C@H](C)CO)C[C@H]2C)cc1,inactive: 0.993
19,CC(C)NC(=O)N(C)C[C@H]1Oc2c(NS(=O)(=O)c3cccs3)cccc2C(=O)N([C@H](C)CO)C[C@@H]1C,inactive: 0.96
20,Cc1noc(C)c1NC(=O)Nc1cccc2c1O[C@@H](CN(C)C(=O)Nc1cccc3ccccc13)[C@H](C)CN([C@@H](C)CO)C2=O,inactive: 0.988
